The results in this text go back to the antibiotic and cytotoxicity screens of Wong et al. (2023).

The list shows a part of the results.

For one assay, the system named is HSkMC. Put plainly: cytotoxicity call (relative viability < 0.9). To be noted: 10 µM.
For a further assay, the system named is HepG2. Put plainly: cytotoxicity call (relative viability < 0.9). To be noted: 10 µM.
The next assay concerns S. aureus RN4220. As to the kind of experiment: growth inhibition call (relative growth <= 0.2). The following applies: 50 µM.

Consider `C[C@H](CO)N1C[C@H](C)[C@H](CN(C)C(=O)Nc2cccc3ccccc23)Oc2ccc(NS(=O)(=O)c3ccc(Cl)cc3)cc2CC1=O`, for which the cytotoxicity call in the assay with HSkMC and in the assay with HepG2 was “inactive” in each case. The growth inhibition call with S. aureus RN4220 is “inactive”.
In the case of `COc1ccc(NC(=O)N(C)C[C@H]2Oc3c(NC(=O)C4CCOCC4)cccc3C(=O)N([C@H](C)CO)C[C@@H]2C)cc1`, the cytotoxicity call with HSkMC and in the assay with HepG2 was “inactive” in each case. For the same compound, the growth inhibition call in the assay on S. aureus RN4220 was “inactive”.
As for `CO[C@@H](CN(C)S(=O)(=O)c1cccc(Cl)c1)[C@@H](C)CN([C@H](C)CO)S(=O)(=O)c1cccc(Cl)c1`, the cytotoxicity call in the assay on HSkMC and with HepG2 was “inactive” each time. For the same compound, the growth inhibition call with S. aureus RN4220 was “inactive”.
Regarding `NCc1cnc2ccccc2c1`, the cytotoxicity call in the assay with HSkMC and in the assay with HepG2 was “inactive” each time. For the same compound, the growth inhibition call in the assay on S. aureus RN4220 is “inactive”.
As for `C[C@@H]1CCCCO[C@@H](CN(C)Cc2ccc(C(=O)Nc3ccccc3N)cc2)[C@H](C)CN([C@H](C)CO)C(=O)c2cc(N(C)C)ccc2O1`, the cytotoxicity call in the assay with HSkMC is “inactive”. Besides, the cytotoxicity call with HepG2 is “active”. In the assay on S. aureus RN4220, the growth inhibition call was “inactive”.
In the case of `COc1ccc(S(=O)(=O)N(C)C[C@@H]2Oc3ccc(NS(=O)(=O)c4ccccc4)cc3CC(=O)N([C@H](C)CO)C[C@@H]2C)cc1`, the cytotoxicity call in the assay on HSkMC and with HepG2 was “inactive” each time. Besides, in the assay with S. aureus RN4220, the growth inhibition call is “inactive”.
As to `CN(C)CCCNC(=O)C[C@H]1CC[C@@H]2[C@@H](COc3ccc(NC(=O)c4ccc5c(c4)OCO5)cc3C(=O)N2C)O1`, the cytotoxicity call in the assay with HSkMC and with HepG2 was “inactive” in each case. For the same compound, the growth inhibition call in the assay with S. aureus RN4220 is “inactive”.
Consider `COc1cc2ccc(=O)oc2c(O[C@H]2O[C@@H](CO)[C@@H](O)[C@@H](O)[C@@H]2O)c1O`, for which the cytotoxicity call in the assay with HSkMC and in the assay on HepG2 was “inactive” in each case. In the assay on S. aureus RN4220, the growth inhibition call was “inactive”.
`CC(C)C#Cc1ccc2c(c1)O[C@H](CN(C)S(=O)(=O)c1cn(C)cn1)[C@@H](C)CN([C@@H](C)CO)S2(=O)=O`: the cytotoxicity call in the assay on HSkMC and with HepG2 was “inactive” in each case. Also, the growth inhibition call in the assay with S. aureus RN4220 is “inactive”.
For the compound `C[C@H]1CN([C@@H](C)CO)C(=O)c2cc(NS(C)(=O)=O)ccc2O[C@@H]1CN(C)S(=O)(=O)c1ccccc1`, the cytotoxicity call in the assay on HSkMC and with HepG2 was “inactive” each time. For the same compound, in the assay on S. aureus RN4220, the growth inhibition call was “inactive”.
For `CC(C)(O)c1ccccc1CCC(SCC1(CC(=O)[O-])CC1)c1cccc(C=Cc2ccc3ccc(Cl)cc3n2)c1.[Na+]` (stereo unspecified), the cytotoxicity call in the assay on HSkMC and in the assay with HepG2 was “inactive” in each case. Moreover, the growth inhibition call in the assay on S. aureus RN4220 was “inactive”.
For `C[C@H]1CN([C@@H](C)CO)C(=O)Cc2cc(NC(=O)Cn3cnnn3)ccc2O[C@@H]1CN(C)C(=O)Nc1ccc(C(F)(F)F)cc1`, the cytotoxicity call in the assay with HSkMC and in the assay with HepG2 was “inactive” each time. In the assay with S. aureus RN4220, the growth inhibition call is “inactive”.
With `C[C@@H]1CN([C@H](C)CO)C(=O)c2cc(NS(=O)(=O)c3cccs3)ccc2O[C@H]1CN(C)Cc1ccc(Oc2ccccc2)cc1`, the cytotoxicity call in the assay with HSkMC and in the assay on HepG2 was “inactive” throughout. Besides, the growth inhibition call in the assay with S. aureus RN4220 is “inactive”.
As to `C[C@H](CO)N1C[C@H](C)[C@H](CN(C)Cc2ccccc2)Oc2ccc(NS(=O)(=O)c3cn(C)cn3)cc2CC1=O`, the cytotoxicity call in the assay with HSkMC and in the assay with HepG2 was “inactive” each time. In addition, the growth inhibition call with S. aureus RN4220 is “inactive”.
Regarding `COC(=O)[C@H](Cc1ccc(-n2cc(CCC(=O)NO)nn2)cc1)N[C@H](/C=C/C1CC1)[C@@H](O)Cc1ccccc1`, the cytotoxicity call in the assay on HSkMC and in the assay on HepG2 was “inactive” in each case. The growth inhibition call with S. aureus RN4220 was “inactive”.
Turning to `C[C@@H]1CN([C@@H](C)CO)C(=O)c2cc(/C=C/c3ccccc3)cnc2O[C@@H]1CN(C)S(=O)(=O)c1cn(C)cn1`, the cytotoxicity call in the assay with HSkMC and with HepG2 was “inactive” each time. Also, in the assay with S. aureus RN4220, the growth inhibition call was “inactive”.
Consider `C[C@@H]1CN([C@H](C)CO)C(=O)c2cc(NS(=O)(=O)c3cn(C)cn3)ccc2O[C@H]1CN(C)CC1CC1`, for which the cytotoxicity call in the assay with HSkMC and with HepG2 was “inactive” in each case. Further, the growth inhibition call with S. aureus RN4220 is “inactive”.
On to `O=C(C[C@H]1C[C@H]2c3cc(NC(=O)Cc4ccncc4)ccc3O[C@H]2[C@@H](CO)O1)NCc1cccc(F)c1`, for which the cytotoxicity call in the assay on HSkMC and in the assay on HepG2 was “inactive” each time. Further, the growth inhibition call in the assay on S. aureus RN4220 was “inactive”.
`CC(C)CC#Cc1cnc2c(c1)C(=O)N([C@H](C)CO)C[C@@H](C)[C@@H](CN(C)S(=O)(=O)c1cn(C)cn1)O2`: the cytotoxicity call in the assay with HSkMC and in the assay with HepG2 was “inactive” throughout. Besides, the growth inhibition call in the assay on S. aureus RN4220 is “inactive”.
As for `COc1ccc(S(=O)(=O)N2C[C@H](O)COC[C@@H]3O[C@@H](CC(=O)N[C@H]4CCN(Cc5ccccc5)C4)CC[C@H]32)cc1`, the cytotoxicity call in the assay on HSkMC and in the assay on HepG2 was “inactive” in each case. Besides, the growth inhibition call in the assay on S. aureus RN4220 is “inactive”.
Consider `C[C@H]1CCCCO[C@H](CN(C)Cc2ccc3c(c2)OCO3)[C@@H](C)CN([C@@H](C)CO)C(=O)c2cc(NC(=O)Nc3ccccc3)ccc2O1`, for which the cytotoxicity call in the assay with HSkMC and with HepG2 was “inactive” in each case. Moreover, in the assay with S. aureus RN4220, the growth inhibition call is “inactive”.
Take `CCS(=O)(=O)N1CC[C@]2(CN(c3cnn(C)c3)C(=O)CN2C(C)=O)C1`: the cytotoxicity call in the assay with HSkMC and in the assay with HepG2 was “inactive” each time. The growth inhibition call in the assay with S. aureus RN4220 was “inactive”.
With `CC(=O)CCCCn1c(=O)c2c(ncn2C)n(C)c1=O`, the cytotoxicity call in the assay on HSkMC and in the assay on HepG2 was “inactive” each time. Also, the growth inhibition call with S. aureus RN4220 was “inactive”.
With `C[C@@H]1CN([C@H](C)CO)C(=O)Cc2cc(NS(=O)(=O)c3cn(C)cn3)ccc2O[C@@H]1CN(C)CC1CC1`, the cytotoxicity call in the assay on HSkMC and in the assay with HepG2 was “inactive” throughout. Also, the growth inhibition call with S. aureus RN4220 was “inactive”.
In the case of `C[C@H](CO)N1C[C@H](C)[C@H](CN(C)C(=O)Nc2ccc3c(c2)OCO3)OCCCC[C@H](C)Oc2ccc(NC(=O)CCC(F)(F)F)cc2C1=O`, the cytotoxicity call with HSkMC and in the assay on HepG2 was “inactive” each time. Further, the growth inhibition call in the assay with S. aureus RN4220 was “inactive”.
On to `C[C@H](CO)N1C[C@H](C)[C@H](CN(C)S(C)(=O)=O)Oc2ncc(C#CC3(O)CCCC3)cc2C1=O`, for which the cytotoxicity call in the assay on HSkMC and in the assay with HepG2 was “inactive” in each case. For the same compound, the growth inhibition call with S. aureus RN4220 was “inactive”.
For `C[C@H](CO)N1C[C@H](C)[C@H](CN(C)Cc2ccc(Oc3ccccc3)cc2)Oc2ccc(NC(=O)Nc3ccc(F)cc3)cc2CC1=O`, the cytotoxicity call in the assay on HSkMC (human skeletal muscle cells) is “inactive”. Moreover, the cytotoxicity call with HepG2 is “active”. Also, the growth inhibition call with S. aureus RN4220 was “inactive”.
